Measurements published in the supplement of paper PMC3334620.
Over roughly 33,000 sequences, “E-score (-0.5 to 0.5)” has its median near -0.035; the highest 2% begin near 0.34. This is one part of the list.

biological target: T1, Mot3 (UniProt P54785); test: PBM E-score (8-mer binding enrichment) (E-score (-0.5 to 0.5)); higher = stronger / more preferred TF binding; most listed sequences are background and not binding sites; conditions: protein concentration: 200 nM; construct: GST-full length
T1 sequence: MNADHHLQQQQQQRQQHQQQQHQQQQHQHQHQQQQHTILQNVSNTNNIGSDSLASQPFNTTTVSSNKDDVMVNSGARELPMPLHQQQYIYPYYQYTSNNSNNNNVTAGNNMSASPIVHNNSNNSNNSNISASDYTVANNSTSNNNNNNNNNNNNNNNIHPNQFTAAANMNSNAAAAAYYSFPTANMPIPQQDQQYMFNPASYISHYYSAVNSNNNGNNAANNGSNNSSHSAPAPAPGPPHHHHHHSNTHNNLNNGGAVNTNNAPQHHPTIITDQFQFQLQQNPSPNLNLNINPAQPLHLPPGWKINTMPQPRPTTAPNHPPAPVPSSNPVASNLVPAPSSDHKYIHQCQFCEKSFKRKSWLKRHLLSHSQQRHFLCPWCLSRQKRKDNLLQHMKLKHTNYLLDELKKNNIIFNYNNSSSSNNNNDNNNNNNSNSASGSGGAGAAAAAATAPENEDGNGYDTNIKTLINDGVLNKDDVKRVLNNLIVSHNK
Method: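 Universal 'all 10-mer' protein binding microarrays (Agilent AMADID 015681) probed with GST-tagged S. cerevisiae TFs (full-length or DBD) made by in vitro transcription/translation (PURExpress), about 100-200 nM. Bound TF was detected with fluorescent anti-GST. Each ungapped 8-mer (which stands for itself and its reverse complement) is scored by the PBM enrichment score (E-score), a modified Wilcoxon-Mann-Whitney statistic from -0.5 to +0.5, computed with the Universal PBM Analysis Suite. Scale: above 0.35 generally sequence-specific binding.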

Row | Sequence | PBM E-score
1 | AACTGCTC | -0.0963
2 | CCTGGGGC | -0.292
3 | ACGATGGG | -0.272
4 | CTATAACA | 0.153
5 | AGATTCCC | -0.236
6 | CCCCTCCA | -0.268
7 | GCCCTCAC | -0.246
8 | CTCCGCAC | -0.159
9 | TAATCAGA | -0.0687
10 | CATTTCAC | 0.0148
11 | CATCTGCC | -0.0475
12 | AATCAAAC | 0.065
13 | CCCCCCGG | -0.415
14 | GGTTCATA | 0.0937
15 | ATAACACG | 0.391
16 | ATTTCCCA | -0.0389
17 | AGGCATCC | 0.384
18 | GGAAGTTA | 0.0395
19 | CTGTGAAG | -0.0313
20 | CCTGTTAC | 0.283
21 | CGAACAGC | -0.0835
22 | CCCTGTGA | 0.0763
23 | CGATCTAC | -0.0314
24 | GTTGCTAA | 0.108
25 | AAGGCTAT | -0.0295

Row | Sequence | PBM E-score
26 | AGGCAGAA | 0.00917
27 | CATGTGGC | -0.00289
28 | CCCGAAAG | -0.0361
29 | AGATCACA | -0.0374
30 | ATTGCAAG | -0.00384
31 | GGCGCGCC | 0.0566
32 | ACTACAAT | 0.0197
33 | CTAGCCGC | -0.124
34 | CCACTTAC | 0.0843
35 | AGAGATCC | -0.245
36 | ACACGAGT | 0.332
37 | AGAGCAAG | -0.00945
38 | CGGAATTA | 0.152
39 | GCGGTATA | -0.118
40 | CGTCCATA | -0.0465
41 | GGCCACCA | -0.0558
42 | AAAGGGGG | -0.0401
43 | TTGACAAA | 0.167
44 | CCAACAGG | 0.00289
45 | CTATATAC | 0.271
46 | ACCTGATA | 0.203
47 | CCCGTTCA | -0.148
48 | ACGATCCC | -0.205
49 | CCAAGCGG | -0.135
50 | ACAATCGT | 0.138

Row | Sequence | PBM E-score
51 | GGTACTAA | 0.0744
52 | GTGGCTAA | -0.092
53 | ATGCGAAT | 0.0233
54 | AATAATGA | 0.0121
55 | GAAAATGA | 0.0287
56 | TCTAAAGA | 0.168
57 | CCTTAGCC | -0.183
58 | AATAGATC | -0.11
59 | CGCGAGGC | -0.125
60 | ACGGGCAC | 0.159
61 | AACCTTAT | 0.0189
62 | ACTCCGGA | -0.0267
63 | CCAGTCAA | -0.0833
64 | AACGGATA | -0.118
65 | CTACCGCC | -0.0822
66 | AAAAGTCC | -0.0392
67 | AAGAAGGT | 0.146
68 | AGTCCACT | -0.0666
69 | CGATTCTA | -0.207
70 | CTGCCAAA | -0.11
71 | AGAAGGCC | -0.0506
72 | AAGAACGG | -0.266
73 | AAGTCATC | -0.182
74 | ACCGGTAC | -0.0922
75 | GAATGCAA | -0.0468

Row | Sequence | PBM E-score
76 | AGACCAAG | -0.175
77 | AGATAGGG | -0.234
78 | CGATAAGC | -0.261
79 | TGGAGGAA | 0.0436
80 | ATAGTCAG | -0.0316
81 | CAAACGCG | 0.121
82 | GGGCTTCA | -0.104
83 | ATGCAAAG | 0.128
84 | ATTACCTC | 0.076
85 | AACGCGAC | 0.23
86 | GCGTTAGA | -0.19
87 | AATTAACG | 0.181
88 | TCACGAGA | -0.168
89 | CACTCCTG | -0.143
90 | ACTGAAGC | 0.00463
91 | CGACCTCG | -0.166
92 | ACAATAAT | 0.0908
93 | CCGCTTTC | -0.0011
94 | AGCCGCAA | -0.287
95 | GCACCAGA | 0.057
96 | CAAAATTC | 0.0637
97 | CATCCCCG | -0.239
98 | TATTTAGA | 0.184
99 | GTCTAGAA | -0.106
100 | CTGAAGGC | 0.151

Row | Sequence | PBM E-score
101 | ACCCGGAA | -0.0257
102 | AAGAATTA | 0.133
103 | GAAAGTCA | 0.117
104 | AAAGCCCA | -0.1
105 | ATGATAGC | 0.11
106 | ACGTATAT | 0.211
107 | CCCGAAAC | -0.104
108 | AATGCACT | 0.144
109 | TGCCGACA | -0.0442
110 | TACAAGCA | 0.284
111 | CCATTGTA | 0.127
112 | GACAAACA | 0.0771
113 | TGATGCAA | 0.0599
114 | ATCTGGTC | -0.00325
115 | CAGGACCG | -0.12
116 | CTACAGGA | 0.242
117 | AAATGATC | -0.214
118 | CGGGCTCC | -0.167
119 | ACCCTATA | -0.112
120 | ATTCCATC | -0.0416
121 | AGGAAACT | 0.421
122 | GGATGCGA | -0.246
123 | CTTATCAC | -0.0296
124 | CGGGCGGA | -0.277
125 | AAAGATAA | 0.104

Row | Sequence | PBM E-score
126 | GGCCTTAC | -0.00846
127 | AAAATATG | -0.0851
128 | GAAACGAA | -0.00785
129 | CGGGACTA | -0.291
130 | CTCACGTC | -0.243
131 | CGAAGGGC | -0.0984
132 | CCCAATTA | -0.0859
133 | CCACATGA | 0.0141
134 | GAAGTGAC | -0.119
135 | ACAGGATC | 0.234
136 | CGTGTGTC | 0.147
137 | ATGCTTCG | -0.149
138 | ACGTTTAG | 0.128
139 | GCCAATTA | -0.0639
140 | TCCACGAA | -0.0319
141 | CCCCACGA | -0.107
142 | CATGAGGA | -0.0554
143 | GACATTAA | 0.129
144 | ACGCAAAT | 0.0286
145 | CGTGAAAC | 0.0734
146 | ACAATGAT | 0.0781
147 | GTGAGGAA | -0.106
148 | CGACTTGC | -0.263
149 | TACAGCTA | -0.0705
150 | AACGATGC | -0.0992

Row | Sequence | PBM E-score
151 | CTCAATGC | -0.0468
152 | AGTTTCAA | 0.0631
153 | ATGTTGAA | 0.283
154 | AAACGAGT | 0.131
155 | CCGTGCCC | 0.304
156 | AGCTCCTC | -0.233
157 | ATGATTAC | 0.252
158 | CTTACCAC | 0.103
159 | GAGGAATC | -0.0751
160 | AATACAAC | 0.236
161 | AATAACCA | 0.107
162 | TAGATATA | 0.06
163 | AGCCAGTA | -0.109
164 | AAATAAAA | 0.142
165 | ACATTCAG | 0.0154
166 | AGACAGCG | -0.186
167 | GTCGGTAA | -0.0334
168 | TCGGGCAA | -0.133
169 | GTTGCGAA | 0.0584
170 | AGTCGGCC | -0.359
171 | GGGTTTAA | 0.0728
172 | CGCACGGC | -0.0477
173 | ATATAAAC | 0.194
174 | CCTGGGAC | -0.133
175 | TGCGCCAA | -0.26

Row | Sequence | PBM E-score
176 | CGGGGTCA | -0.344
177 | GGAAAGAA | 0.0908
178 | ATGGTATA | -0.014
179 | ACTGGGTC | -0.337
180 | TGGCGCCA | -0.0648
181 | AACCTCTG | -0.176
182 | CCCTCCCA | -0.0757
183 | AACAAGTA | 0.247
184 | GTAATAGA | 0.225
185 | ATTCTAAC | 0.0138
186 | AAAGAAAA | 0.081
187 | CGTCTCAA | -0.0928
188 | GCTTACGA | -0.0856
189 | ATAACATC | 0.21
190 | ACTACGCC | -0.217
191 | CAATAGCA | -0.128
192 | CCCCTTAC | -0.0693
193 | AATTTACA | 0.382
194 | AGTATACG | 0.112
195 | ACCATAGT | -0.184
196 | GTGTCTTA | 0.204
197 | GCTATACA | 0.177
198 | CACTCCAA | -0.141
199 | CAAAAGTC | -0.0843
200 | ATAGCTCC | -0.278

Row | Sequence | PBM E-score
201 | ATGGGAAA | -0.228
202 | CGCCATCC | -0.195
203 | GTAAACAA | 0.283
204 | CTTCCGGA | -0.129
205 | AAGATCCA | -0.211
206 | CTTTCTTA | 0.107
207 | GTTCAATA | -0.0296
208 | TATCCCCA | -0.122
209 | GAATAGTC | -0.0927
210 | GCGTAATA | 0.308
211 | AGTACGCG | 0.289
212 | GACTCGGC | -0.194
213 | CCGATTAA | -0.071
214 | GCCGTCCC | -0.178
215 | CCTCGGAC | -0.337
216 | ACTCGACG | 0.0488
217 | GCCTCCGC | 0.0936
218 | GTCGCACA | -0.125
219 | GCGCCAAA | -0.0398
